Test results from PubChem BioAssay AID463173 (ICCB-Longwood Screening Facility, Harvard Medical School, 2010).
Among all 52,000 compounds or so, about 4,300 (8.3%) were called active. Rule as the data show it: active = survival mostly below about 52% (no sharp cut-off); inactive = mostly above about 56%. The list shows a part of the results.

Tested on: DeltatarO mutant
Test: S. aureus survival, RN4220 and DeltatarO strains – OD600, teichoic acid synthesis inhibitors, primary screen (AID 463173)
Conditions: S. aureus RN4220 wild type/DeltatarO growth, OD600, 18 h, stronger effect = lower value, screened at 18.75 µg/mL (by protocol)

SMILES	survival
O=C(c1ccco1)N1CCN(C(c2coc3ccc(Cl)cc3c2=O)c2nnnn2C2CCCC2)CC1 (stereo not given)	inactive: 76%
CCS(=O)(=O)c1ncc(Cl)c(C(=O)N2CCN(c3cccc(Cl)c3)CC2)n1	active: 8%
Fc1ccc(C(c2nnnn2Cc2ccccc2)N2CCSCC2)cc1 (stereo not given)	inactive: 97%
NC(=O)C1(N2CCCCC2)CCN(C(=O)Nc2ccc(C(F)(F)F)cc2)CC1	inactive: 112%
CCN(CC)c1nc(-c2ccccc2)nc2ccccc12	inactive: 86%
Cc1ccc(NCc2ccccc2-c2nnc(-c3ccccc3Cl)o2)c(C)c1	inactive: 83%
COc1ccccc1NC(=O)Cn1c(=O)n(Cc2ccco2)c(=O)c2cccnc21	inactive: 74%
Cc1cc(-c2ccc(C)c(S(=O)(=O)N(C)c3ccc(C)c(C)c3)c2)on1	inactive: 86%
O=S(=O)(c1ccccc1)N(c1cccnc1)S(=O)(=O)c1ccccc1	inactive: 73%
CCc1cc2ccccc2nc1SCC(=O)N1CCCC1	inactive: 59%
COC(=O)c1ccc(NCC(=O)c2ccccc2)cc1	active: 64%
Cc1ccc(OCCCn2c(CCNC(=O)C3CCCCC3)nc3ccccc32)c(C)c1	inactive: 64%
COc1ccc(OC)c(NC(=O)CN2C(=O)c3ccccc3Sc3ccc(C(=O)N4CCCC4)cc32)c1	inactive: 109%
COc1ccc(N(Cc2cccs2)C(=O)Nc2ccccc2)cc1	inactive: 75%
Cc1cc(C)c2c(=O)cc(CSc3nnc(COc4ccccc4C)n3C)[nH]c2c1	inactive: 85%
C1CCCN(c2nc3nonc3nc2N2CCCCCC2)CC1	inactive: 67%
Cc1ccc2c(c1)c1c(c(=O)n(-c3ccccc3C)c(=O)n1CC(=O)NCc1ccccc1)n2C	inactive: 80%
O=c1cc(-c2ccccc2)c2cc(Cl)c3c(c2o1)CN(Cc1ccccc1)CO3	inactive: 89%
COc1ccc(CC(=O)NCc2ccc3c(c2)CCN3C(=O)c2ccc(Cl)cc2)cc1OC	inactive: 86%
COc1cc(-c2nc3ccc(Cl)cn3c2NC(C)(C)C)ccc1O	inactive: 80%
CCc1ccc(CNC(=O)c2cc(-c3ccc(Br)s3)nc3ccccc23)cc1	active: 60%
CCCOc1ccc(C2C(=O)N(C3CCC(C)CC3)CC(=O)N2CCC2=CCCCC2)cc1OC (stereo not given)	inactive: 80%
COc1cccc(-c2ccc3c(N)c(C(=O)NCc4ccc(Cl)cc4)sc3n2)c1	active: 41%

SMILES	survival
COc1ccc(OC)c(-c2cc(C(=O)NC(C)c3ccccc3)no2)c1 (stereo not given)	active: -14%
CCc1ccc(NC(=O)Cn2c(=O)oc3cc(S(=O)(=O)N4CCCCCC4)ccc32)cc1	inactive: 61%
O=C(Cn1cc(/C=C2\C(=O)NC(=O)N(Cc3ccccc3)C2=O)c2ccccc21)NCc1ccco1	inactive: 64%
Cc1onc(-c2ccc(F)cc2F)c1C(=O)Nc1cccc(C(F)(F)F)c1	inactive: 97%
CN(C(=O)C(=O)Nc1ccc2nc3n(c(=O)c2c1)CCCCC3)c1cccc(C(F)(F)F)c1	inactive: 76%
O=S(=O)(Nc1nc2n(n1)C(c1ccc(F)cc1)C=C(c1ccccc1)N2)c1ccc(Cl)cc1 (stereo not given)	active: 10%
Cc1cccc(N2CCN(C3(c4ccccc4)C(=O)c4ccccc4C3=O)CC2)c1C	inactive: 79%
Cc1ccc(S(=O)(=O)N2CCOCC2)cc1C(=O)Nc1ccccc1C(=O)O	inactive: 83%
COc1ccc(CCNC(=O)c2c(C)nn(-c3ccc(F)cc3)c2-n2cccc2)cc1OC	inactive: 74%
O=C(Nc1cccc(Cl)c1)NC1(C(=O)Nc2ccc3c(c2)OCCO3)CCCCC1	inactive: 88%
Cn1cc(S(=O)(=O)N2CCCCCC2)cc1C(=O)NCc1ccccc1Cl	inactive: 112%
COc1cc(OC)cc(C(=O)N2CCC(C(=O)NC(C)C)CC2)c1	inactive: 87%
CCOc1ccc(-n2c(-c3ccccc3)c(C)n3c4c(=O)n(C)c(=O)n(C)c4nc23)cc1	inactive: 85%
CCn1cc(C(=O)NCc2ccc(C)cc2)c(=O)c2cc(S(=O)(=O)N3CCCCCC3)ccc21	inactive: 82%
COc1ccccc1CNC(=O)c1ccc2nc(-c3ccccc3)c(-c3ccccc3)nc2c1	inactive: 94%
O=C(CCc1nc2cccnc2n1Cc1cccs1)Nc1cccc(Cl)c1	inactive: 52%
Cc1nn(C)c2c1c(C(F)(F)F)cc(=O)n2Cc1cccc(Br)c1	inactive: 103%
CCOC(=O)c1cc(-c2ccccc2)n(CCC(=O)Nc2ccc(Cl)c(C(F)(F)F)c2)c1C	inactive: 102%
Cc1cccc(NS(=O)(=O)c2ccc(-n3cccn3)cc2)c1C	inactive: 65%
CC(C)CNc1nc(Oc2ccc(OCC(N)=O)nn2)nc(N2CCOCC2)n1	inactive: 69%
c1ccc(-c2nonc2NCNc2nonc2-c2ccccc2)cc1	inactive: 96%
Cc1oc(C)c2c(=O)cc(-c3ccc4c(c3)OCO4)cc(OC(=O)c3ccccc3Cl)c12	inactive: 99%
CCOC(=O)c1c(NC(=O)CC)sc(C(=O)OC)c1C	inactive: 75%

SMILES	survival
CS(=O)(=O)N(CC(=O)O)C1CCCCC1	inactive: 91%
CCN1C(=O)/C(=C2/Sc3ccc(OC)cc3N2C)SC1=Nc1cccc(O)c1	inactive: 93%
Cc1c(Cl)cccc1NC(=O)Cn1c(=O)nc(-c2ccccc2)c2ccccc21	inactive: 91%
CCCNC(=O)C1CCN(c2ncnc3c2nc2n3CCCCC2)CC1	inactive: 76%
COc1ccc(NC(=O)c2coc(C)c2)cc1	inactive: 82%
CCCC(=O)NCC(c1ccc2c(c1)OCO2)N1CCN(c2ccccc2)CC1 (stereo not given)	inactive: 83%
CCOC(=O)N1CCc2c(sc(NCc3ccc(OC)c(OC)c3OC)c2C(=O)Nc2ccc(OC)cc2OC)C1	inactive: 94%
CCc1ccc(-n2c(=O)c3sc4ccccc4c3n(Cc3cccc(F)c3)c2=O)cc1	inactive: 90%
CCc1nnc(NC(=O)c2nc(SCc3ccccc3C)ncc2Cl)s1	inactive: 96%
CCCCCOc1ccc(/C=C/C(=O)Nc2sc(C(C)=O)c(C)c2C(=O)OCC)cc1OC	inactive: 71%
COC(=O)CSc1nc(-c2ccc(F)cc2)cc(C(F)(F)F)n1	inactive: 126%
O=C(CCn1ccc2cc(S(=O)(=O)N3CCCC3)ccc21)NCc1cccc(F)c1	inactive: 81%
CCN(CC)Cn1c(=S)sc2ccccc21	inactive: 75%
COc1ccc(OC)c(C2N=C(N)Nc3nc4ccccc4n32)c1 (stereo not given)	inactive: 54%
COc1cc(OC)c(C2Nc3ccccc3-c3nnc(SCc4ccccc4)nc3O2)cc1OC (stereo not given)	inactive: 54%
COc1ccc(NC(=O)Cn2c(=O)n(Cc3nc(C)no3)c(=O)c3cc4c(cc32)OCO4)cc1OC	inactive: 75%
COc1cccc(-n2cc(C(=O)NCc3ccccc3OC)c3ccccc3c2=O)c1	inactive: 72%
COc1ccc(-c2nc(CN3CCC(C(=O)NCCCOC(C)C)CC3)c(C)o2)cc1OC	inactive: 92%
Cc1ccccc1Cn1c(=O)n(CCc2ccccc2)c(=O)c2c(C)c(C)sc21	active: -6%
COc1cccc(OCCSc2nc3ccccc3n2CC(=O)N2CCCCC2)c1	active: 42%
COC(=O)c1cc(S(=O)(=O)NCC2CCN(Cc3cccc(F)c3)CC2)c[nH]1	inactive: 77%
CCc1cc2c(cc3c(=O)n(CC(=O)NCCc4ccc(OC)c(OC)c4)ncn32)s1	inactive: 72%
Cc1cccc(-c2nn3c(=O)cc(CN4CCN(S(=O)(=O)c5ccc(Cl)cc5)CC4)nc3s2)c1	inactive: 67%

SMILES	survival
CCC(C(=O)Nc1ccccc1C(=O)OC)n1nc(C)c2c(C)n(-c3ccc(C)cc3)nc2c1=O (stereo not given)	inactive: 93%
CCC1CCc2nc3sc(C(=O)Nc4ccc(F)c(Cl)c4)c(N)c3cc2C1 (stereo not given)	inactive: 71%
COc1ccccc1C(=O)OCc1cc(=O)n2nc(C3CC3)sc2n1	inactive: 82%
Nc1ccc2nc(SCC(=O)O)sc2c1	inactive: 102%
Cc1nc(-c2ccc(Cl)cc2)sc1CCNC(=O)c1ccc(C(F)(F)F)cc1	inactive: 107%
COC(=O)CSc1nc2ccc(C(C)C)cc2cc1C#N	inactive: 82%
Cc1ccc(C)c(NC(=O)CCn2nc(C)c3c(C)n(-c4ccccc4)nc3c2=O)c1	active: 37%
CCc1ccc(NC(=O)c2sc3nc(C)c(Cl)c(C)c3c2N)cc1	inactive: 69%
O=C(Cn1c(-c2cccs2)cc2cc(Cl)ccc21)N1CCN(c2ccccc2)CC1	inactive: 78%
COc1ccc(-c2cccc(NS(=O)(=O)c3cc(C)c(OC)c(C)c3C)c2)nn1	inactive: 96%
Cc1ccc(NC(=O)C2CCCN2S(=O)(=O)c2ccc3c(c2)CCCC(=O)N3)cc1C (stereo not given)	inactive: 80%
Cc1cccc(N(CC(=O)O)S(C)(=O)=O)c1	inactive: 72%
COc1ccc(NC(=O)C(c2ccc(C)cc2)N(C)C(=O)Cc2cccs2)cc1 (stereo not given)	inactive: 57%
COc1ccccc1CNC(=O)CSc1ncc2c(n1)-c1ccc(Cl)cc1N(Cc1ccccc1)S2(=O)=O	active: 32%
Cc1c(Cl)cccc1NC(=O)C(C)n1c(=O)cc(-c2ccccc2)c2c(C)nn(C)c21 (stereo not given)	inactive: 86%
COc1ccccc1Nc1nc(Nc2cccc(C(F)(F)F)c2)nc(N2CCOCC2)n1	inactive: 73%
CC(C)(C)c1ccc(OCCn2ccccc2=O)cc1	inactive: 86%
Cc1cccc(-n2c(=O)c3c(c4cc(C)ccc4n3C)n(CC(=O)NCCC3=CCCCC3)c2=O)c1	inactive: 67%
COc1ccc(-c2noc(-c3cccnc3NCc3ccco3)n2)cc1	inactive: 98%
COc1ccc(-c2onc(C)c2C)cc1S(=O)(=O)NCC1CCN(Cc2ccccc2F)CC1	inactive: 96%
CCOC(=O)CSc1nc2ccccc2c(=O)n1CCc1ccc(OC)c(OC)c1	inactive: 102%
